The text below walks through data of publication PMC4336329 (PLoS ONE, 2015).

Out of some 310,000 compounds screened, about 14,000 (4.5%) showed an effect of 50% or more. The effect is printed as a negative number. This is one part of the list.
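Also: peak tail current of the secondary pulse compared with the same well before compound.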

human ether-à-go-go-related gene (hERG) potassium channel, sequence (Q12809 whole entry, looked up): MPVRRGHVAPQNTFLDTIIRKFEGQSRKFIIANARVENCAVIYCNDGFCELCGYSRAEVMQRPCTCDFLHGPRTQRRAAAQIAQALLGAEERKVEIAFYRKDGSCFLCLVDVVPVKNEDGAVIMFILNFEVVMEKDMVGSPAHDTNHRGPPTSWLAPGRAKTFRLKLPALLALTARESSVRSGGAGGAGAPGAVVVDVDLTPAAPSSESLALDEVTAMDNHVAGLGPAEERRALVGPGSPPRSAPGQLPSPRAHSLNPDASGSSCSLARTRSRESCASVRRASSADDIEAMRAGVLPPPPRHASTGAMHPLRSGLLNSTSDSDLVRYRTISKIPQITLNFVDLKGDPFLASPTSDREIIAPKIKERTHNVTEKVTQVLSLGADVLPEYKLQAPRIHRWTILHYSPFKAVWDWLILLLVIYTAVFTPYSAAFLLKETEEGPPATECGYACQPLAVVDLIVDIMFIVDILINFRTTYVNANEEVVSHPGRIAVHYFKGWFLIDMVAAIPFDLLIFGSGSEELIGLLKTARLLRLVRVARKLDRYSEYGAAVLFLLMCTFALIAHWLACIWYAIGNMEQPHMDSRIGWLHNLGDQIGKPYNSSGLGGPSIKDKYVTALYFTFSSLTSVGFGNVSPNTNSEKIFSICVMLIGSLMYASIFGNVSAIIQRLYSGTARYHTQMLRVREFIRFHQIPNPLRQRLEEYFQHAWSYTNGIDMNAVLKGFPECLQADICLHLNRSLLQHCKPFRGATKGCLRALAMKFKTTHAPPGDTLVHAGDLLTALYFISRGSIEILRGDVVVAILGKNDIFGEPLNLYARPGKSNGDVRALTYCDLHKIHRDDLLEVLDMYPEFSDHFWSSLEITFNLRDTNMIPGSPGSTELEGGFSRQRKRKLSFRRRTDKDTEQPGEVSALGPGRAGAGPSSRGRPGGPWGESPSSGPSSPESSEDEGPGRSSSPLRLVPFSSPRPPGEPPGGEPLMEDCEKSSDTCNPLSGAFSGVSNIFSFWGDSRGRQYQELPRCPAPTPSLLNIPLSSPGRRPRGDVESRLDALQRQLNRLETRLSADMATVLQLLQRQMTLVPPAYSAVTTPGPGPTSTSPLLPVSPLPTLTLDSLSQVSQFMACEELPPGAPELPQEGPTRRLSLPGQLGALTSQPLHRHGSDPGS

The assay addresses human ether-à-go-go-related gene (hERG) potassium channel (human, UniProt Q12809). Kind of assay: primary screen, population patch clamp on CHO cells stably expressing hERG.
On to `COCCNC(=O)[C@@]1(Cc2ccccc2)C=C[C@@H](C)N1C(C)=O`, for which the “hERG current change (%, negative = inhibition) at 10uM” value amounted to 11.5%. For the compound `O=C(COc1ccc(Br)cc1)N1CCOCC1`, the “hERG current change (%, negative = inhibition) at 10uM” value was -0.627%. With `O=C(C(=O)N1CCN(c2ccccc2Cl)CC1)c1c[nH]c2ccccc12`, the “hERG current change (%, negative = inhibition) at 10uM” value was found to be 9.59%.

On to `CC1CCN(S(=O)(=O)c2ccc3c(c2)N(CC(=O)NCCCN2CCCC(C)C2)C(=O)CO3)CC1` (centres unmarked), for which the “hERG current change (%, negative = inhibition) at 10uM” value is -8.35%.

Regarding `CC(=O)NCC(=O)OCC(=O)c1ccc(C)cc1`, the “hERG current change (%, negative = inhibition) at 10uM” value is given as 13.4%.

`CC(C)N1CCC(=NNC(=O)c2ccc(Br)o2)CC1`: the “hERG current change (%, negative = inhibition) at 10uM” value is given as 7.81%. With `CCOc1ccc(OCc2ccc(C(=O)NCC3CCCO3)o2)cc1` (centres unmarked), the “hERG current change (%, negative = inhibition) at 10uM” value was -7.61%. In the case of `Cc1ccc2cc(CCNC(=O)c3cccc([N+](=O)[O-])c3)c(=O)[nH]c2c1`, the “hERG current change (%, negative = inhibition) at 10uM” value is reported as -20.2%. Next, `COC(=O)CCc1nc2ccccc2nc1OC`: 25.3%; `COc1ccc(OC)c(/C(O)=C/C(=O)C(=O)Nc2cc(C)cc(C)c2)c1`: -5.65%.

On to `Cc1ccc(CNC(=O)Cc2ccc(-c3ccccc3)cc2)cc1`, for which the “hERG current change (%, negative = inhibition) at 10uM” value is -7.08%. With `O=C(CCn1cnc(-c2ccccc2)c1-c1ccccc1)N/N=C/c1ccccc1O`, the “hERG current change (%, negative = inhibition) at 10uM” value was -18.4%. Next, `Fc1ccccc1NC(=S)NCCc1ccc(Cl)cc1`: 2.22%; `CCOc1ccc(-c2nnn(CC(=O)NCc3ccc(C)cc3)n2)cc1`: 8.27%; `Cc1cnc(C)c(N2CCN(Cc3nc(-c4ccccc4)no3)CC2)n1`: -42.2%.

Take `COc1ccc(C2C(C#N)=C(N)N(c3ccccc3C#N)C3=C2C(=O)CCC3)cc1CN1CCCC1` (centres unmarked): the “hERG current change (%, negative = inhibition) at 10uM” value came to 9.11%.

For `CCc1noc(C)c1C(=O)NNC(=O)c1nn(C)c(=O)c2ccccc12`, the “hERG current change (%, negative = inhibition) at 10uM” value was -50.2%. As to `COc1ccc(CCC(=O)N2CCN(c3ccccc3)CC2)cc1OC`, the “hERG current change (%, negative = inhibition) at 10uM” value worked out at 14%. Next, `Cc1nccc2[nH]c(=O)c(C(=O)NC3CCCCC3C)cc12` (centres unmarked): -4.13%. The same measure for `CCC(Sc1ccccn1)C(=O)Nc1nnc(C)s1` (centres unmarked): -11.8%. The same measure for `C[C@@]12C(=O)N(Cc3ccccc3)CC(=O)N1[C@H]1c3cc(Cl)ccc3OC[C@@H]1[C@@H]2c1ccccc1`: 16.5%; for `COc1ccc(/C(C#N)=C/c2c(-c3ccc(Cl)cc3)nc3c(C)cccn23)cc1`: 16.9%; for `COc1ccc(CCNC(=O)c2cccnc2)cc1`: -2.76%. As to `Cc1ccc(NS(=O)(=O)c2cc(NC(=O)c3ccc4c(c3)NC(=O)CS4)ccc2Cl)c(C)c1`, the “hERG current change (%, negative = inhibition) at 10uM” value was 25.1%.

Regarding `CC(C)C(=O)NC(=O)[C@@H]1CCCN1C(=O)/C=C/c1ccccc1`, the “hERG current change (%, negative = inhibition) at 10uM” value stood at 8.62%. For the compound `COc1cc(CNc2ccccc2SC)cc(OC)c1OC`, the “hERG current change (%, negative = inhibition) at 10uM” value is 13.5%. In the case of `Cn1c(NCc2cc(Br)ccc2O)nc2ccccc21`, the “hERG current change (%, negative = inhibition) at 10uM” value is reported as 0.412%. Regarding `O=C(Nc1ccccc1)NC1(C(=O)NCCCN2CCOCC2)CCCCC1`, the “hERG current change (%, negative = inhibition) at 10uM” value is -2.49%. As for `O=c1cc(O)c2ccccc2n1Cc1ccccc1`, the “hERG current change (%, negative = inhibition) at 10uM” value was found to be 6.05%. `CC1C(=O)NC(=O)C1c1ccccc1` (centres unmarked): the “hERG current change (%, negative = inhibition) at 10uM” value came to 14.2%. Take `N#C/C(=C/c1ccc(N2CCOCC2)o1)C(=O)NC1CCCCC1`: the “hERG current change (%, negative = inhibition) at 10uM” value is -32.5%. For the compound `CC(C)OCC1CC(CC(=O)Nc2ccc([N+](=O)[O-])cc2)C(=O)O1` (centres unmarked), the “hERG current change (%, negative = inhibition) at 10uM” value is -34.1%.

Consider `CCOC(=O)C(NC(=O)c1cccnc1)(Nc1cccc(C)n1)C(F)(F)F` (centres unmarked), for which the “hERG current change (%, negative = inhibition) at 10uM” value is given as 1.24%.

In the case of `CC1CN(C(=O)c2cc3c(=O)n4ccccc4nc3s2)CC(C)O1` (centres unmarked), the “hERG current change (%, negative = inhibition) at 10uM” value is on record as -4.06%. The same measure for `Cc1ccc(CN2C(=O)C(CC(C)C)Nc3ncnc(N4CCN(c5ccccn5)CC4)c32)cc1.O=C(O)C(F)(F)F` (centres unmarked): -43.3%. Next, `CCNC(=S)N(CCc1c(C)[nH]c2ccc(Cl)cc12)Cc1cccnc1`: -19.3%; `Cc1cccc(NC(=S)NCCc2ccccn2)c1`: 4.38%; `O=C(NC1CC1)c1cccc(Br)c1`: 0.381%. Consider `COc1cccc(NC(=S)N2CCC(N(C)CC3CCCO3)CC2)c1` (centres unmarked), for which the “hERG current change (%, negative = inhibition) at 10uM” value is -15.2%. As for `CCCCN1C(=O)CC(N2CCOCC2)C1=O` (centres unmarked), the “hERG current change (%, negative = inhibition) at 10uM” value is on record as 16.9%.

`Cc1cc2cc(CNC(=O)COc3ccccc3)ccc2n1C`: the “hERG current change (%, negative = inhibition) at 10uM” value is recorded as -1.63%. For `O=S(=O)(Nn1cnnc1)c1ccc2ccccc2c1`, the “hERG current change (%, negative = inhibition) at 10uM” value came out at 28.7%.

On to `CN(CC(=O)Nc1ccc(C#N)cc1)CC(=O)Nc1ccc(N2CCOCC2)cc1`, for which the “hERG current change (%, negative = inhibition) at 10uM” value is given as -56.3%. For `Cc1cc(C(c2cc(C)c(N)c(C)c2)c2ccco2)cc(C)c1N`, the “hERG current change (%, negative = inhibition) at 10uM” value is reported as 0.594%.

Turning to `CC(=O)N1CCN(CC(O)COc2ccc(S(=O)(=O)N3CCOCC3)cc2)CC1.Cl` (centres unmarked), the “hERG current change (%, negative = inhibition) at 10uM” value came out at 7.78%. Next, `CCOC(=O)c1c(C)n(-c2ccc(OC)cc2)c2ccc(O)c(CN(C)C)c12.Cl`: -74.2%; `COc1ccc(C(=O)Nc2cc(OC)c(NC(=O)c3ccco3)cc2OC)cc1`: -25.1%. Next, `CCOC(=O)c1ccc(N/C(=N\S(=O)(=O)c2ccccc2C)c2ccccc2)cc1`: -2.52%; `COc1cc2ccccc2cc1C(=O)Nc1ccc(C)cn1`: 8.6%; `Cc1[nH]c(C(=O)N/N=C/c2ccc(N(C)C)cc2)c(C)c1C(=O)N/N=C/c1ccc(N(C)C)cc1`: 24.5%.

Turning to `Cc1cc(C)cc(NC(=O)CSc2nnc(CNC(=O)c3cccs3)o2)c1`, the “hERG current change (%, negative = inhibition) at 10uM” value is on record as -22%. As for `Cc1cc(/C=C(\C#N)C(=O)NC2CCCCCC2)c(C)[nH]1`, the “hERG current change (%, negative = inhibition) at 10uM” value was determined as 9.54%. In the case of `O=C1c2ccccc2C(=O)N1CSc1ncccn1`, the “hERG current change (%, negative = inhibition) at 10uM” value was 5.23%. Next, `O=S(=O)(c1ccc2ccccc2c1)N1CCN(S(=O)(=O)N2CCCCC2)CC1`: -5.71%; `CC(=O)C(=Cc1cn(-c2ccccc2)nc1-c1ccccc1)C(C)=O`: -21.3%. As for `CC(C)N(CCCNC(=O)CC1Oc2ccccc2NC1=O)Cc1ccccc1` (centres unmarked), the “hERG current change (%, negative = inhibition) at 10uM” value was -26.3%. `O=C(NC1=NCCS1)c1ccc([N+](=O)[O-])cc1Cl`: the “hERG current change (%, negative = inhibition) at 10uM” value is listed as 5.48%. The same measure for `CCOC(=O)Cn1nc(-c2ccccc2)c(-c2ccccc2)nc1=O`: -33.2%.

For the compound `CCOc1ncccc1C(=O)Nc1ccc(C)cn1`, the “hERG current change (%, negative = inhibition) at 10uM” value is 14.4%.

Turning to `CCCCN1C(=O)C2Cc3c([nH]c4ccccc34)CN2C1=S` (centres unmarked), the “hERG current change (%, negative = inhibition) at 10uM” value came out at 16.4%. The same measure for `COc1cccc2c(=O)c3c([nH]c12)OC(C)(C)C3`: 13%. Take `COCCNc1nc(-c2cc3ccccc3o2)cs1`: the “hERG current change (%, negative = inhibition) at 10uM” value is on record as 2.17%. Next, `COc1cccc(NC(=O)c2ccc(N3C(=O)C4CC=C(C)CC4C3=O)cc2)c1` (centres unmarked): 15.7%; `CC(=O)N1c2ccc(S(=O)(=O)N3CCC(C(=O)N4CCCCC4)CC3)cc2CC1C` (centres unmarked): 19%; `Nc1nnc(CC(=O)N2CCCCC2)s1`: 12.5%.

Regarding `CCCCC(=O)C1C(=O)NC(=O)NC1=O`, the “hERG current change (%, negative = inhibition) at 10uM” value is -7.2%. With `Cc1ccc(-c2c[n+](CC(=O)c3ccc(Br)cc3)c3n2CCCCC3)cc1.[Br-]`, the “hERG current change (%, negative = inhibition) at 10uM” value is -61.4%. As for `COC(=O)Cn1c2ccc(F)cc2c2nc(C)sc21`, the “hERG current change (%, negative = inhibition) at 10uM” value was found to be 7.03%. Next, `Cn1cnnc1SCC(=O)Nc1sccc1C#N`: 5.43%. Regarding `CCC1CCC/C1=N\NC(=O)CCC(=O)Nc1ccccc1Cl` (centres unmarked), the “hERG current change (%, negative = inhibition) at 10uM” value was determined as 7.77%. Next, `C=CCNC(=O)/C(=C\C=C\c1ccccc1)NC(=O)c1ccc(OCCCC)cc1`: 3.8%.

In the case of `CCCCN=C1NN=C(c2ccc3c(c2)OCCO3)CS1`, the “hERG current change (%, negative = inhibition) at 10uM” value is given as -15.5%.

Regarding `CCOc1ccc(NC(=O)CSc2nnc(C)n2CCCOC)cc1`, the “hERG current change (%, negative = inhibition) at 10uM” value is reported as 9.67%. The same measure for `CCOC(=O)C(O)(c1ccc(N(C)C(=O)COc2ccccc2)cc1)C(F)(F)F` (centres unmarked): -11%; for `CN(C)CCCN=Cc1c(O)n(Cc2ccco2)c(=O)[nH]c1=O`: 16.5%. The same measure for `COCCOC(=O)c1c(C)n(C)c2ccc(OC(=O)c3ccco3)cc12`: -2.37%; for `Cc1cc(C(=O)Nc2ccc3c(c2)OCCO3)nn1C(C)(C)C`: -1.89%. For the compound `COc1cccc(-c2nnc(N)o2)c1`, the “hERG current change (%, negative = inhibition) at 10uM” value is on record as 3.45%.

For `Cc1cc(C)cc(C(=O)n2cnnc2N)c1`, the “hERG current change (%, negative = inhibition) at 10uM” value is -2.51%. The same measure for `Nc1nc2n(n1)C(c1c(F)cccc1Cl)CC(c1ccc(F)cc1)N2` (centres unmarked): -62.4%; for `CCOCCCNC(=O)c1ccc2c(c1)OCO2`: -0.807%.

As to `CCOC(=O)C1(Cc2ccccc2)CCCN(CCCn2cccn2)C1` (centres unmarked), the “hERG current change (%, negative = inhibition) at 10uM” value was -14.2%. Next, `O=C(CN(C(=O)c1csnn1)c1ccc(F)cc1)NCCc1ccccc1`: 7.95%; `COc1ccc(NC(=O)c2ccc(COc3ccccc3)o2)c(OC)c1`: -7.06%. `CCS(=O)(=O)N1CCC(C(=O)NCc2ccc(F)cc2)CC1`: the “hERG current change (%, negative = inhibition) at 10uM” value is given as 5.49%.

In the case of `COc1ccc(C(CC(=O)N2CCCC2)c2c(O)cc(OC)cc2OC)cc1` (centres unmarked), the “hERG current change (%, negative = inhibition) at 10uM” value is on record as 5.9%. Next, `O=C(NC1CCCCCCC1)c1ccc2c(c1)N(Cc1ccc(F)cc1)C(=O)CS2=O` (centres unmarked): -21.5%. Regarding `Cc1ccc(S(=O)(=O)NNC(=S)NCC2CCCO2)cc1` (centres unmarked), the “hERG current change (%, negative = inhibition) at 10uM” value turned out to be 10.5%. As to `COc1ccc(-c2nnn(CC(=O)N(C3CCCCC3)C(C)C(=O)NC3CCCC3)n2)cc1OC` (centres unmarked), the “hERG current change (%, negative = inhibition) at 10uM” value is -22.1%. `O=C(Nc1nonc1NC(=O)C1CCCCC1)C1CCCCC1`: the “hERG current change (%, negative = inhibition) at 10uM” value came out at 14%. The same measure for `C=CCn1c(-c2ccccc2)n[nH]c1=S`: 14.3%; for `Cc1ccnc(NC(=O)CCC(=O)N(CC(=O)NC(C)(C)C)C2CCCC2)c1`: 1%.
